Source: the BET-seq Pho4 binding data (Le et al. 2018)
Some of the results follow. The energies were worked out here from pooled read counts, against the library average; single values are noisy.

biological target: T1, Pho4 (S. cerevisiae) (UniProt P07270); assay: relative binding free energy (BET-seq); higher = weaker binding; conditions: reference: library average
T1 sequence: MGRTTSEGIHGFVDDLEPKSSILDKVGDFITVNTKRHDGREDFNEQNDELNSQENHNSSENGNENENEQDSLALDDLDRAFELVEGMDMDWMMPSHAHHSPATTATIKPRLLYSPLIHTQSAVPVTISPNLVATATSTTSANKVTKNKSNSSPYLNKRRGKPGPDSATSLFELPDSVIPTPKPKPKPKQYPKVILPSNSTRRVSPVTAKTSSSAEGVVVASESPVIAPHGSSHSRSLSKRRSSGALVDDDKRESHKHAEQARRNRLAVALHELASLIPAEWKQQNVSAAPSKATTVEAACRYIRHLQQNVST

Sequence | relative binding free energy [kcal/mol]
AGTTTCACGTGATGGG | 0.44
GTGGTCACGTGAGCGG | 0.29
TCGTTCACGTGTGGCA | 0.42
AACGGCACGTGAATGG | 0.17
TAGTTCACGTGGCATT | 0.29
ATGTTCACGTGAATCG | 0.37
ATGGGCACGTGGGCGA | -0.26
GTAGACACGTGTACGT | 0.24
GGTTGCACGTGTGTCG | 0
GCTTTCACGTGTTGGC | 0.56
TCATGCACGTGTTTAT | -0.08
GGGCCCACGTGATGGT | 0.21
ATGCACACGTGTTGGA | 0.12
CTAGGCACGTGCGTGT | -0.18
AACATCACGTGTGGTT | 0.04
TGTATCACGTGTTACG | 0.09
TTTCACACGTGAGGTA | 0.28
AGGTGCACGTGTGGTT | 0.04
ATGATCACGTGTTTTA | 0.12
CGGCGCACGTGTTTGT | -0.18
CGGCTCACGTGTGTAT | 0.31
GGAGGCACGTGTAGGG | -0.14
GGTCGCACGTGCGTTT | 0.04

Sequence | relative binding free energy [kcal/mol]
ACCTTCACGTGGGGTG | 0.17
TTATGCACGTGTGGGC | -0.01
CAATGCACGTGAAGTG | 0.24
GGCGTCACGTGGCAGG | 0.1
GAGAACACGTGTTGAG | 0.21
CAGGGCACGTGGTGGT | -0.18
GTTTACACGTGCTTGG | 0.21
GATGGCACGTGCATTG | -0.02
TGTCACACGTGTGTAA | 0.04
GAGTCCACGTGTGGGA | 0.12
GTGAACACGTGGTTAG | -0.12
TAATGCACGTGGTTGA | -0.04
GGAAGCACGTGTGGAG | -0.03
TATTGCACGTGAAGCT | 0.2
GATATCACGTGTTTAT | 0.19
TTAATCACGTGGGATG | 0.08
GGATGCACGTGATCGT | 0.16
GGTAGCACGTGACAGG | 0.03
TAGGCCACGTGATGTT | 0
TGGGACACGTGCCGGT | -0.19
AGGTTCACGTGGATTA | 0.26
AGACGCACGTGTGGGT | -0.14
CGAGGCACGTGAAGTG | 0.13

Sequence | relative binding free energy [kcal/mol]
CGTCTCACGTGTTTAT | 0.28
GGTATCACGTGATATG | 0.27
GAAGGCACGTGAGTTT | 0.19
AAGTGCACGTGGACGG | 0.09
ATTTCCACGTGATGTT | 0.24
GGGAGCACGTGAGAGT | 0.02
TCATTCACGTGGTGTG | 0.23
GGTTTCACGTGTTTAA | 0.24
TGGGGCACGTGATTTC | -0.04
GATTTCACGTGACGTA | 0.52
GGGACCACGTGTAGTG | 0
TATATCACGTGTAATG | 0.1
TGTTCCACGTGATATG | 0.07
GTTCGCACGTGCGGTA | 0
CTTGTCACGTGGTTTC | 0.18
GGAGTCACGTGCAATT | 0.32
TGTGACACGTGGGAAA | -0.12
GAGGTCACGTGGGCGT | 0.03
TATTGCACGTGGATGC | 0.05
TGAGGCACGTGATATG | 0.13
TGCTACACGTGGGTGT | 0.05
GGAACCACGTGAGGGG | 0.23
GGTATCACGTGGCAAT | 0.22

Sequence | relative binding free energy [kcal/mol]
GCTGTCACGTGGTTGG | 0.08
GTATGCACGTGGTACG | -0.23
TTGTGCACGTGCTTGA | -0.02
TCTGTCACGTGCAGTT | 0.05
CATTTCACGTGGGGAA | 0.26
TGCTTCACGTGGTGGT | 0.24
AAGTGCACGTGGGCGC | -0.08
TGGTCCACGTGTTTAA | -0.04
CAAGGCACGTGGGTAT | -0.31
GGAGGCACGTGGAGGC | -0.13
GGATCCACGTGTTTGT | 0.08
ATAATCACGTGCTGGG | 0.02
GTGGGCACGTGGCGAC | -0.18
GGGAACACGTGTTATG | 0.09
AGCTTCACGTGAAGGA | 0.62
GGCGGCACGTGAGTTC | 0.46
TGGATCACGTGGAGAG | 0.14
ATTAGCACGTGCGGTG | -0.04
GATGACACGTGGGTGA | -0.09
AAGTGCACGTGGGCAG | -0.24
AGACTCACGTGGGAGT | 0
GCTATCACGTGGGTAG | 0.09
TGTTACACGTGGGTGC | 0.05

Sequence | relative binding free energy [kcal/mol]
CGTTTCACGTGAAATT | 0.45
CTGGGCACGTGGGCAG | -0.19
GTGCGCACGTGTCCGG | 0.04
TTACTCACGTGGTTAT | 0.04
TGAACCACGTGGCGTG | 0.04
GGTATCACGTGGTTTC | 0.1
GGATACACGTGTATTG | -0.02
ATCTTCACGTGTGTTG | 0.15
TTTTTCACGTGGGGTA | 0.21
TGTACCACGTGTGAGT | -0.09
GCGATCACGTGTATGG | 0.06
ATGTGCACGTGTGCGT | -0.02
AAGCGCACGTGTCGGT | 0.09
AGTGCCACGTGAGTGA | 0.08
GTATGCACGTGAGGGA | 0.22
TTGTGCACGTGTAGAA | 0.14
CTTGGCACGTGGCGTG | -0.25
AGTTGCACGTGCATTG | 0.08
GGGTGCACGTGGGTGA | -0.21
GTCGGCACGTGTCTGG | -0.06
TTTTTCACGTGCATTG | 0.2
TGCTGCACGTGAGTGC | 0.2
AAGTGCACGTGGGTCA | -0.26
